# From PubChem BioAssay AID588855 (National Center for Advancing Translational Sciences (NCATS), 2011)
# Screen size: about 410,000 compounds; about 5,000 (1.2%) were called active. The shares of active, inactive and inconclusive entries below differ from those in the screen. Calls come from the whole dose curve; as a rule, active = well fitted inhibition curve with a large enough effect; inconclusive = small, poorly fitted or top-dose-only effect; inactive = no such curve, though single readings can be large or run the other way. Where the call is inconclusive, the potency comes from a doubtful curve fit.
# Experiment: qHTS for Inhibitors of TGF-b; note: nearly all actives have a fitted effect of over 65% in size
# Conditions: HepG2 CAGA-GFP TGF-b/SMAD3 reporter, GFP fluorescence, 18 h, TGF-beta stimulated, 500 pg/mL final; series mostly up to 46.1 µM; activity, negative = inhibition: at the top concentration
# Outline: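 Smad-responsive CAGA-GFP expression was quantified in HEPG2 cells exposed to compounds and 500 pg/mL final TGF-beta for 18 h at 37 degrees C; unstimulated wells defined full inhibition.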
# % is set by controls: 0 for no effect and ±100 for the full control effect; potency is the fitted concentration of half-maximal effect; tags give direction and shape of the fitted curve.
Structure (SMILES),Potency,"activity, negative = inhibition"
CCn1ccnc1CN(C)Cc1cn(-c2cccc(C)c2)nc1-c1cccc(F)c1,"inconclusive: 35.5 µM [inhibitor, single point]",
CCOc1ccc(NC(=O)CC2Nc3ccccc3NC2=O)cc1 (stereo not drawn),,inactive: 3.2%
Cc1ccc(N2CCN(C(=O)c3ccccc3F)CC2)c(C)c1,,inactive: -25.9%
Clc1ccc2ncc(-c3nnnn3-c3ccccc3)c(-c3ccccc3)c2c1,"inconclusive: 10 µM [inhibitor, partial curve, poor fit]",
O=C(Nc1ccccc1)c1nnsc1S(=O)c1ccc(Cl)cc1 (stereo not drawn),"inconclusive: 17.8 µM [inhibitor, single point]",
CCCC1C(=O)Nc2ccccc2N1C(=O)c1ccc(C(C)(C)C)cc1 (stereo not drawn),"inconclusive: 35.5 µM [inhibitor, single point]",
O=[N+]([O-])c1cc(S(=O)(=O)N2CCCCC2)ccc1NCc1cccc(Cl)c1,"inconclusive: 2.82 µM [inhibitor, full curve, poor fit]",
COc1ccc(Nc2nc3cc(-c4ccsc4)sc3c(=O)n2C)cc1OC,,inactive: -29.4%
Cn1cc(CCC(=O)N2CCCC(C(=O)c3cccc4ccccc34)C2)cn1 (stereo not drawn),"inconclusive: 11.2 µM [inhibitor, single point]",
COc1ccccc1OCCSc1nc2ccccc2n1CC(N)=O,,inactive: 0.541%
CSc1cccc(-c2nnc(NC(=O)c3cccc(N4C(=O)CCC4=O)c3)o2)c1,,inactive: 6.29%
COc1ccccc1OCc1nc(C#N)c(NCc2ccco2)o1,,inactive: -7.26%
Cc1cc(C)cc(NS(=O)(=O)c2ccc3[nH]cc(C(=O)NC4CCCCC4)c(=O)c3c2)c1,"inconclusive: 17.8 µM [inhibitor, single point]",
CC(=NCCCn1ccnc1)c1c(C)[nH]n(-c2ccc([N+](=O)[O-])cc2)c1=O,"inconclusive: 6.31 µM [inhibitor, single point]",
Cc1ccc(S(=O)(=O)N2[C@@H](c3ccccc3)C(C(=O)O)=CC[C@H]2c2ccc(Cl)c(Cl)c2)cc1,"inconclusive: 11.2 µM [inhibitor, partial curve, poor fit]",
O=C(Nc1cccc(F)c1)N1CCN(C/C=C/c2ccccc2)CC1,"inconclusive: 35.5 µM [inhibitor, single point]",
CCOC(=O)c1c(C)[nH]c(C(=O)COC(=O)c2ccc(O)cc2)c1C,,inactive: 28.5%
Cc1nn(-c2ccccc2)c(N2CCCC2)c1/C=N/NC(=O)c1cc2ccccc2cc1O,"inconclusive: 17.8 µM [inhibitor, single point]",
Cc1ccc(C)c(C2=CSC3=NCCN23)c1,"inconclusive: 6.31 µM [inhibitor, single point]",
O=C1CCCCc2sc(Br)c([N+](=O)[O-])c2N1,,inactive: -25.9%
Cc1ccc(Cl)cc1NC(=O)Cn1c(=O)n(Cc2ccccc2)c(=O)c2oc3ccccc3c21,,inactive: -12.3%
COC(=O)CSc1ccc(-c2nc3ccc(C)cc3[nH]2)cn1,"inconclusive: 35.5 µM [inhibitor, single point]",

Structure (SMILES),Potency,"activity, negative = inhibition"
Cc1ccc(CCNC(=O)CCCn2c(=O)c3ccccc3n(Cc3ccccc3C#N)c2=O)cc1,,inactive: -24.1%
CCn1cc2c(n1)-c1c(oc(C(=O)Nc3cccc(C)c3C)c1C)CC2,,inactive: -0.728%
COc1cc2c(cc1OC)C(C)N(C(=O)c1ccc(Cl)c(S(=O)(=O)N3CCCCC3)c1)CC2 (stereo not drawn),"inconclusive: 25.1 µM [inhibitor, single point]",
O=C(NCC(c1ccco1)N1CCOCC1)c1cccc([N+](=O)[O-])c1 (stereo not drawn),"inconclusive: 3.55 µM [inhibitor, partial curve, poor fit]",
Cc1ccc(-c2nc(-c3ccccc3)no2)c(Cl)c1,,inactive: 2.92%
Cc1ccc(C)c(S(=O)(=O)N2CCN(C(=O)CCC(=O)c3cc(C)sc3C)CC2)c1,,inactive: -6.74%
Cc1cc(C)n(-c2nc3ccccc3nc2Nc2ccc(Cl)c(C(=O)OC(C)C)c2)n1,,inactive: 44.3%
O=C(NC(=S)N1CCN(c2ccc(F)cc2)CC1)c1cccs1,"inconclusive: 35.5 µM [inhibitor, single point]",
Cc1ccc(S(=O)(=O)N(CC(=O)Nc2cccc(N(C)S(C)(=O)=O)c2)c2ccc(Cl)c(Cl)c2)cc1,"inconclusive: 8.91 µM [inhibitor, partial curve, poor fit]",
COCCCNC(=O)c1ccc(-n2c(-c3ccccc3)cc3c2CCCC3)cc1,"inconclusive: 17.8 µM [inhibitor, single point]",
COc1ccc(C(=O)Oc2cccc3cccnc23)cc1[N+](=O)[O-],active: 6.31 µM,
CC1CN(S(=O)(=O)c2cccc(C(=O)NCCC3=CCCCC3)c2)CC(C)O1 (stereo not drawn),"inconclusive: 7.08 µM [inhibitor, partial curve, poor fit]",
Clc1ccc(CN2CCC(CNc3ncnc4onc(-c5ccc(Cl)cc5)c34)CC2)cc1,"inconclusive: 14.1 µM [inhibitor, partial curve, poor fit]",
CCOC(=O)CNC(=O)N(C)[C@H]1C[C@H]2c3[nH]c4ccccc4c3CCN2C(=O)[C@H]1[C@H](C)O,"inconclusive: 0.562 µM [inhibitor, full curve, poor fit]",
O=C(c1cccs1)N1CCCC(c2nc3c(nnn3Cc3ccccc3Cl)c(=O)[nH]2)C1 (stereo not drawn),,inactive: -0.962%
CCCCCN1C/C=C\C(c2ccc(OC)cc2)N(Cc2ccc(F)cc2)C(=O)C1 (stereo not drawn),"inconclusive: 12.6 µM [inhibitor, partial curve, poor fit]",
O=C(c1ccccc1)c1ccc2nc(-c3ccco3)c(-c3ccco3)nc2c1,"inconclusive: 35.5 µM [inhibitor, single point]",
O=C(CSCc1ccc(F)cc1)N1CCN(c2ccc(Cl)cc2)CC1,"inconclusive: 22.4 µM [inhibitor, single point]",
O=C(O)C1Cc2ccccc2CN1C(=O)COc1ccc(Cl)cc1Cl (stereo not drawn),"inconclusive: 3.16 µM [inhibitor, single point]",
CCN(CC)CCNc1c(C)cc(CO)c(Cl)c1C,"inconclusive: 17.8 µM [inhibitor, single point]",
Cc1nn(CC(=O)N(C)C)c(=O)c2ccccc12,"inconclusive: 3.16 µM [inhibitor, partial curve, poor fit]",
